The campaign covered roughly 150,000 compounds. About 540 (0.36%) showed an effect of 50% or more. This is one part of the list.
Tested on: Plasmodium falciparum
Experiment: Primary screen in NF54 nanoGlo assay, in single point, at 2uM, 72h; a lower Z score goes with more inhibition
Type: functional, Erythrocyte
Settings: timepoint 72 hour

Compound | % Inhibition [%] | Z score
Cc1nc(N2CCN(CC(=O)NC3CCCCC3)CC2)c2cc[nH]c2n1 | -11 | 2.32
O=C(NC1CCN(c2ccccn2)CC1)c1cc(=O)c2ccccc2[nH]1 | -6 | 1.21
CC(C)(C)OC(=O)N1CCC[C@H](Nc2ccn(CC(F)F)n2)CC1 | 3 | -0.72
CCNc1ncc(C(=O)N[C@@H](C)c2ccc3cc(OC)ccc3c2)cn1 | 17 | -2.97
Nc1nccnc1C(=O)Nc1cccc(-c2ccc3c(c2)CCO3)c1 | 0 | 0.09
Clc1ccc2c(N3CCCC[C@H]3c3nc4ccccc4o3)ncnc2c1 | -14 | 3.07
NC(=O)C[C@H](Nc1cc(-n2ccnc2)ncn1)C1CCCCC1 | -17 | 3.02
CN(C)c1nc2c(c(NCc3cc4ccc(F)cc4[nH]c3=O)n1)CCNC2 | -12 | 2.5
CCCCc1c(C)nc(N)nc1N1CCC(CN2CCN(C)CC2)CC1 | 23 | -3.49
CCN(CCCN[C@H]1CCCN(C)c2ccccc21)S(C)(=O)=O | -2 | 0.35
C[C@@H](C(=O)NCc1cc[nH]n1)N1CCN(C)CC1 | -7 | 1.3
Clc1cnc(NCC(c2ccco2)c2ccco2)nc1 | -8 | 1.27
CC(C)(C)c1cc2c(N3CCC[C@H](NC4CCOCC4)C3)nccn2n1 | -8 | 1.14
O=C([C@H]1CC(=O)N(c2[nH]nc3ccccc23)C1)N1CCC(c2noc3cc(F)ccc23)CC1 | -11 | 1.71
Cc1ccc2cc(CNc3ccc(N4CCOCC4)cn3)ccc2n1 | -17 | 3.44
CC(C)(O)CN(C(=O)C1CCN(c2noc3ccc(Cl)cc23)CC1)C1CC1 | 5 | -0.77
COc1cccc([C@H](C)N2CCN(Cc3ccc4c[nH]nc4c3)CC2)c1 | -11 | 1.88
CC(C)N1CCC[C@H](C(=O)N(C)CC2CCN(CCc3ccccc3F)CC2)C1 | -6 | 1.03
CCCn1cc(NC(=O)NCCCc2c(C)noc2C)nn1 | -7 | 1.45
Cc1n[nH]c(CNC(=O)NCc2ccc(C3CC3)cc2F)n1 | -12 | 2.3
Cc1cc(C)cc(Nc2nc(Nc3cc(C)cc(C)c3)nc(N[C@@H](C)C(=O)Nc3ccc(F)cc3)n2)c1 | 5 | -0.88
O=C(NCc1cccc(-c2ccccc2)c1)[C@@H]1CCCN1C1CCNCC1 | 0 | -0.07
CO[C@H]1C[C@@H](CN(C)c2cc(NCC3CC3)ncn2)N(C)C1 | -7 | 1.05
Nc1nccc(N2CCc3onc(-c4ccc(-c5ccccc5)cc4)c3C2)n1 | 10 | -1.51
c1ccc2sc(NCCc3noc(C4CC4)n3)nc2c1 | 1 | -0.15
Cc1ccc(-n2nnnc2N2CC3CCC2C3)cc1 (stereo unspecified) | -5 | 0.78
Cn1cc(NC(=O)CN2CCC(N3CCC[C@H](C(=O)N4CCCC4)C3)CC2)cn1 | -5 | 1.11

Compound | % Inhibition [%] | Z score
O=c1[nH]c2ccccc2n1C1CCN(C[C@]2(O)CCCNCC2)CC1 | 3 | -0.5
Nc1nc(N2CCC3(CC2)CC(=O)N(Cc2ccccc2)C3)c2cn[nH]c2n1 | -1 | 0.18
FC1(F)CNCC[C@@H]1CNc1cc(N2CCOCC2)ncn1 | -2 | 0.42
OCC12CCCNC1CCN(Cc1cccc(-c3ccccn3)c1)C2 (stereo unspecified) | 4 | -0.62
C[C@H]1CNCCN1C(=O)c1cccc(-c2cc(N3CCOCC3)nc(N)n2)c1 | -7 | 1.3
Cc1ccc(NC(=O)CNC(=O)c2cc(F)cc(F)c2)c(N(C)C)n1 | -5 | 1.16
C[C@](O)(CNS(=O)(=O)c1c[nH]c2ncccc12)C(c1ccccc1)c1ccccc1 | 4 | -0.63
Cc1c(NC(=O)C2CC2C2CCOCC2)n[nH]c1C(C)C (stereo unspecified) | -5 | 0.75
CN1CCC(c2nc(C(=O)N3CC[C@H](Nc4ncccn4)C3)c[nH]2)CC1 | 7 | -1.12
COc1ccc(CNCCCn2ccnc2C)c(OC[C@@H](O)CN2CCN(C)CC2)c1 | -4 | 0.81
CN1CCN([C@H]2CCN(c3cc(NCCO)ncn3)C2)CC1 | -6 | 1.28
c1cc(O[C@H]2CCNC2)cc(CNc2nccn3cnnc23)n1 | 3 | -0.56
N#Cc1cnccc1N[C@H]1CCN(CCN2CCOCC2)C1 | -16 | 2.46
CN(Cc1cccc2[nH]ccc12)C1CCN(CCn2cccn2)CC1 | -1 | 0.24
CC(C)CNC(=O)c1cc(F)c(NC(=O)COC(C)C)c(F)c1 | -7 | 1
Cc1nc(CN(C)Cc2cccc3cnccc23)n(C)c1C | -4 | 0.86
O=C(N1CCCC1)N1CCC(Nc2ncnc3cc[nH]c23)CC1 | -2 | 0.34
COc1ccc2cc(CNc3cc(C#N)c4ccccc4n3)ccc2c1 | 7 | -1.24
COc1ccc2nc(C)cc(NCc3cccc(NC(=O)c4ccco4)c3)c2c1 | 93 | -18.52
COc1ccccc1-c1cnnc(Nc2ccc(OCC(C)(C)Cl)cc2)c1 | -6 | 1.21
CC[C@H]1CN(c2ncnc3[nH]ccc23)CCN1CCOC | 1 | -0.12
N#Cc1cc2c(nc1N1CC(O)C(Cc3ccnc4ccccc34)C1)CCCC2 (stereo unspecified) | -4 | 0.78
CN(C)CCN1CCC(CNCc2cc(F)ccc2F)CC1 | 2 | -0.36
Cc1ccc(CNC(=O)NC2(C)CCC3(CC2)OCCO3)cn1 | -3 | 0.56
COc1ccc([C@@H](NC(=O)c2cc(C)nc3cc(F)ccc23)C2CC2)cc1 | -13 | 2.59
CCN(CCN(C)C)C(=O)c1ccc(N2CCNCC2)c(NS(=O)(=O)c2cc(C)c(C)cc2C)c1 | -9 | 1.5
